{"source": "paper PMC4336329", "about": "(PLoS ONE, 2015)", "note": "The campaign covered roughly 310,000 compounds. About 14,000 (4.5%) showed an effect of 50% or more. Effects have a minus sign here. The list shows a part of the results.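 Note: peak tail current of the secondary pulse compared with the same well before compound.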", "data": [{"target": "human ether-à-go-go-related gene (hERG) potassium channel (human, UniProt Q12809)", "sequence (Q12809 whole entry, looked up)": "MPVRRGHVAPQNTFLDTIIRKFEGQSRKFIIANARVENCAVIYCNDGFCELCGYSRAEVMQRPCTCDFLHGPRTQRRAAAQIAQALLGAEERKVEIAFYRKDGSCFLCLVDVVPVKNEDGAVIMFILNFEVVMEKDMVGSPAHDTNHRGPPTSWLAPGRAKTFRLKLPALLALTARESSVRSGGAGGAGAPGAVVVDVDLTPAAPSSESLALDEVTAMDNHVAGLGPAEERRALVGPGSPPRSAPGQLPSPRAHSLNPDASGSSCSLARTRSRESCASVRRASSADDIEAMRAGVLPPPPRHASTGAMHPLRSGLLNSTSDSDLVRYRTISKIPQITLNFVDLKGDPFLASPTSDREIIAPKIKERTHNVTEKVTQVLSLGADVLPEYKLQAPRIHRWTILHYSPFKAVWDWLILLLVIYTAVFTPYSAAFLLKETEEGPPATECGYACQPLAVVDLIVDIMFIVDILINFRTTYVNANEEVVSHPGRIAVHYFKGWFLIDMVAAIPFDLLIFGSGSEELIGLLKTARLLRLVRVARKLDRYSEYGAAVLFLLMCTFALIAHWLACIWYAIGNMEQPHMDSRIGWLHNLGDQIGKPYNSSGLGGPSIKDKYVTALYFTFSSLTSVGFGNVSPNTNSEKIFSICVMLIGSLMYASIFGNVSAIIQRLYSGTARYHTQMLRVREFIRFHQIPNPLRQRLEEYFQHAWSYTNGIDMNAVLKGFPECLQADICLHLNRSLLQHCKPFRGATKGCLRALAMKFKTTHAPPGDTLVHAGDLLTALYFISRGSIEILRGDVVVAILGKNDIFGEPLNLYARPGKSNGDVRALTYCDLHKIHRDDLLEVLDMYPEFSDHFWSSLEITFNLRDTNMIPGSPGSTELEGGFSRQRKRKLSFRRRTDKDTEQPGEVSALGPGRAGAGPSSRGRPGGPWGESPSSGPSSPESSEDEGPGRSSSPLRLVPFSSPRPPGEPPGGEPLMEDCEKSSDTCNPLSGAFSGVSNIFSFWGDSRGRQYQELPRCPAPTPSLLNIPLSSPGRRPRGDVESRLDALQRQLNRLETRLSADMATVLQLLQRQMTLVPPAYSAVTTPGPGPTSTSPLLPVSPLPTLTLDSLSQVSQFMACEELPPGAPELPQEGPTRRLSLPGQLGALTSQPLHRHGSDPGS", "test": "primary screen, population patch clamp on CHO cells stably expressing hERG", "units": {"hERG current change (%, negative = inhibition) at 10uM": "%"}, "values": [{"smiles": "O=C(CCCCCn1c(=S)[nH]c2ccc(N3CCOCC3)cc2c1=O)NCc1ccccc1", "hERG current change (%, negative = inhibition) at 10uM": 12}, {"smiles": "CCC(C(=O)OCC(=O)Nc1cccc(C(C)=O)c1)c1ccccc1", "note": "(stereo not shown)", "hERG current change (%, negative = inhibition) at 10uM": 2.95}, {"smiles": "Cc1cc(Br)cc2c(C(=O)Nc3c(C)n(C)n(-c4ccccc4)c3=O)cc(-c3cccs3)nc12", "hERG current change (%, negative = inhibition) at 10uM": 12.1}, {"smiles": "O=[N+]([O-])c1ccc(O)c(-c2nn[nH]n2)c1", "hERG current change (%, negative = inhibition) at 10uM": 1.52}, {"smiles": "COc1cccc(-c2ccc3c(N)c(C(=O)NC4CC4)sc3n2)c1", "hERG current change (%, negative = inhibition) at 10uM": 12.8}, {"smiles": "COc1cc(/C=C/C(=O)O)ccc1OCc1cnc(Cl)s1", "hERG current change (%, negative = inhibition) at 10uM": 5.88}, {"smiles": "O=C(NC1CCCCCC1)C(=S)N1CCCC1", "hERG current change (%, negative = inhibition) at 10uM": 0.128}, {"smiles": "O=C(Nc1ccc(S(=O)(=O)Nc2ncccn2)cc1)c1ccc(S(=O)(=O)N2CCCC2)cc1", "hERG current change (%, negative = inhibition) at 10uM": 15.5}, {"smiles": "Cc1c(N=Cc2cc3c(cc2[N+](=O)[O-])OCO3)cccc1[N+](=O)[O-]", "hERG current change (%, negative = inhibition) at 10uM": 6.14}, {"smiles": "O=c1c2c([nH]c3ccc(Br)cc13)CCCC2", "hERG current change (%, negative = inhibition) at 10uM": 3.36}, {"smiles": "CC1(C)C(C(=O)NCc2ccco2)C1(C)C", "hERG current change (%, negative = inhibition) at 10uM": 3.59}, {"smiles": "C[C@@H]1C[C@H]2[C@@H]3C[C@H](F)C4=CC(=O)C(Cl)=C[C@]4(C)[C@@]3(F)[C@@H](O)C[C@]2(C)[C@@]1(O)C(=O)CO", "hERG current change (%, negative = inhibition) at 10uM": -5.56}, {"smiles": "CC(=O)Nc1ccc(-c2nn[nH]n2)cc1", "hERG current change (%, negative = inhibition) at 10uM": 4.51}, {"smiles": "CC(C)(C)C(=O)Nc1nnc(SCC(=O)Nc2ccc3c(c2)OCO3)s1", "hERG current change (%, negative = inhibition) at 10uM": 14.9}, {"smiles": "CCOCCCNc1ccc(N2C(=O)C3CCCCC3C2=O)cc1[N+](=O)[O-]", "note": "(stereo not shown)", "hERG current change (%, negative = inhibition) at 10uM": -2.09}, {"smiles": "O=S(=O)(Cc1ccccc1)NCC1CCCN(Cc2ccc(F)c(F)c2)C1", "note": "(stereo not shown)", "hERG current change (%, negative = inhibition) at 10uM": -44.2}, {"smiles": "O=S(=O)(Nc1ccc(Cl)cn1)c1ccc(F)cc1", "hERG current change (%, negative = inhibition) at 10uM": -22.5}, {"smiles": "O=C(COC(=O)c1cc([N+](=O)[O-])ccc1NCCO)Nc1ccc2c(c1)OCO2", "hERG current change (%, negative = inhibition) at 10uM": 5.75}, {"smiles": "O=C(NCCCN1CCOCC1)c1ccc(S(=O)(=O)Nc2ccccc2)cc1", "hERG current change (%, negative = inhibition) at 10uM": 28.5}, {"smiles": "CN1/C(=C\\C(=O)COC(=O)c2ccc(O)cc2)C(C)(C)c2ccccc21", "hERG current change (%, negative = inhibition) at 10uM": 9.75}, {"smiles": "COc1cccc(-n2c(CN3CCN(c4ccccn4)CC3)nc3ccc([N+](=O)[O-])cc3c2=O)c1", "hERG current change (%, negative = inhibition) at 10uM": -40}, {"smiles": "CCn1c(SCC(=O)NC2CC2)nnc1-c1ccc(OC)cc1", "hERG current change (%, negative = inhibition) at 10uM": 17.4}, {"smiles": "Cc1cc(NS(=O)(=O)c2ccc(NC(=O)Cc3ccc([N+](=O)[O-])cc3)cc2)no1", "hERG current change (%, negative = inhibition) at 10uM": 17.7}, {"smiles": "CN(Cc1ccccc1)Cc1nc2c(c(=O)n(C)c(=O)n2C)n1CCc1ccccc1", "hERG current change (%, negative = inhibition) at 10uM": -48.3}, {"smiles": "Cc1cccc(NC(=O)CNC(=O)CN2C(=O)NC3(CCCCC3C)C2=O)c1C", "note": "(stereo not shown)", "hERG current change (%, negative = inhibition) at 10uM": 28.7}, {"smiles": "COc1ccc(S(=O)(=O)NCc2ccc(C(=O)N3CCN(c4ccccn4)CC3)cc2)cc1", "hERG current change (%, negative = inhibition) at 10uM": -13.7}, {"smiles": "Nc1nnc(SCC(=O)NN2C(=O)NC3(CCCCC3)C2=O)s1", "hERG current change (%, negative = inhibition) at 10uM": 8.44}, {"smiles": "CN1CCC(O)(c2ccccc2)C2CCCC21", "note": "(stereo not shown)", "hERG current change (%, negative = inhibition) at 10uM": 1.25}, {"smiles": "COc1ccc(NC(=O)Cn2nnc(C(=O)NCc3cccs3)c2N)c(OC)c1", "hERG current change (%, negative = inhibition) at 10uM": 8.52}, {"smiles": "COc1ccccc1N1CCN(C(=O)c2cccc(S(=O)(=O)N3CCCCCC3)c2)CC1", "hERG current change (%, negative = inhibition) at 10uM": -77}, {"smiles": "O=C(Nc1ccnn1C1CCN(C(=O)Cc2ccccc2F)CC1)C1CC1", "hERG current change (%, negative = inhibition) at 10uM": 10.1}, {"smiles": "CC(C)C(=O)N(Cc1cc2ccccc2[nH]c1=O)C(C)C", "hERG current change (%, negative = inhibition) at 10uM": -20.8}, {"smiles": "CC1CC(C)CN(C(=O)c2cc(-c3ccncc3)nc3ccccc23)C1", "note": "(stereo not shown)", "hERG current change (%, negative = inhibition) at 10uM": -35.5}, {"smiles": "Cc1ccc(Cl)cc1N1C(=O)CC(Sc2ncccn2)C1=O", "note": "(stereo not shown)", "hERG current change (%, negative = inhibition) at 10uM": 11.3}, {"smiles": "CC(C)c1ccc(S(=O)(=O)N2CCN(C(C)C(=O)N3CCCC3)CC2)cc1", "note": "(stereo not shown)", "hERG current change (%, negative = inhibition) at 10uM": -11.8}, {"smiles": "O=C(c1ccco1)N(Cc1cc2ccccc2[nH]c1=O)C1CCCCC1", "hERG current change (%, negative = inhibition) at 10uM": 0.833}, {"smiles": "COC(=O)c1cccc(N(CC(=O)NC2CCCCC2)C(=O)CNC(=O)c2cccs2)c1", "hERG current change (%, negative = inhibition) at 10uM": -0.681}, {"smiles": "O=C(O)C1(NS(=O)(=O)c2ccc(F)c(Cl)c2)CCCCC1", "hERG current change (%, negative = inhibition) at 10uM": 7.65}, {"smiles": "COc1cc(/C=N/NC(=O)C(N)=O)ccc1OCC(=O)N1C(C)CCCC1C", "note": "(stereo not shown)", "hERG current change (%, negative = inhibition) at 10uM": 1.75}, {"smiles": "Cc1nn(-c2ccccc2)c2c1C(O)n1c(nc3ccccc31)S2", "note": "(stereo not shown)", "hERG current change (%, negative = inhibition) at 10uM": -2.39}, {"smiles": "Nc1nc(NC(=O)CCCC(=O)O)nn1-c1ccccc1", "hERG current change (%, negative = inhibition) at 10uM": 9.02}, {"smiles": "CC(C)CCNC(=O)CNC(=O)c1cccs1", "hERG current change (%, negative = inhibition) at 10uM": 6.48}, {"smiles": "COc1cccc(C(=O)NCCCNC(=O)c2cccc(OC)c2)c1", "hERG current change (%, negative = inhibition) at 10uM": 1.43}]}]}
